From PubChem BioAssay AID1468 (National Center for Advancing Translational Sciences (NCATS), 2008)
In all, about 280,000 compounds went through this assay and about 1,100 (0.39%) were called active. This list was built around the results that the source calls inconclusive (neither active nor inactive); the mix of calls is not that of the screen. Calls come from the whole dose curve; as a rule, active = well fitted inhibition curve with a large enough effect; inconclusive = small, poorly fitted or top-dose-only effect, or effect the other way; inactive = flat fitted curve, though single readings scatter. Potencies of inconclusive entries are left out as doubtful fits.
% is set by controls: 0 for no effect and ±100 for the full control effect; potency is the fitted concentration of half-maximal effect; tags give direction and shape of the fitted curve.
Note: nearly all actives have a fitted effect of over 55% in size.

What follows are molecules tested against Microtubule-associated protein tau (Homo sapiens) (UniProt P10636) (assay: qHTS for Inhibitors of Tau Fibril Formation, Fluorescence Polarization). Settings: K18 P301L tau heparin fibrillization, Alexa594 FP, 6 h; series mostly up to 57.7 µM; activity, negative = inhibition: at the top concentration.
Sequence of UniProt P10636 (P10636 whole entry, looked up): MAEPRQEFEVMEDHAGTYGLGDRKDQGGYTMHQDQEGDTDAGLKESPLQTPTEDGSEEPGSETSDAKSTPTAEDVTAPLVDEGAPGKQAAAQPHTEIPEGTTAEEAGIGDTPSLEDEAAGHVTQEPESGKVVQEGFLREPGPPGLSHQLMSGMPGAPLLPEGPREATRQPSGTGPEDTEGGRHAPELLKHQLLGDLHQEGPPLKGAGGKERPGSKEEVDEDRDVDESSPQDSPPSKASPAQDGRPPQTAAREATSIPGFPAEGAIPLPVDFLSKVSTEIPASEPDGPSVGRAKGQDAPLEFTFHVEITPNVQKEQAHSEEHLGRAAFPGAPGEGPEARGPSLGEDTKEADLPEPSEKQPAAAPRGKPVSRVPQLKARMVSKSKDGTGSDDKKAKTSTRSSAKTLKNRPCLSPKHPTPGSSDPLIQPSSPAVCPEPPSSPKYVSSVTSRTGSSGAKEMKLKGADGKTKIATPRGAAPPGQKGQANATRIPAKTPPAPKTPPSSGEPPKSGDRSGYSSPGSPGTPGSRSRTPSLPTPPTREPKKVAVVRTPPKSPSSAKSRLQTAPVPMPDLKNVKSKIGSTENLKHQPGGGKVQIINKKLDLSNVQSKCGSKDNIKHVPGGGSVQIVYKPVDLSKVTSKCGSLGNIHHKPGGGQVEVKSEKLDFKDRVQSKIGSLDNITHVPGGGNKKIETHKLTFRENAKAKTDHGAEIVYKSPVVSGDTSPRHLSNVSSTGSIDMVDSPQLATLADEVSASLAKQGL
Method in brief: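 Quantitative HTS format: compounds meet 15 uM recombinant K18 P301L tau and Alexa 594-tau tracer in 100 mM sodium acetate pH 7; 20 uM heparin triggers fibrillization at 37 C over 6 hr; FP gives the signal.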
In the case of `O=C(CCn1cnc(-c2ccccc2)c1-c1ccccc1)N/N=C/c1ccc(O)cc1`, the Potency is reported as inconclusive [activator, single point]. For `CC(O)CNCCOc1ccccc1-c1ccccc1` (centres undefined), the “activity, negative = inhibition” value was inactive: 2.06%. For `O=c1cc(-c2c(F)c(F)c(F)c(F)c2F)oc2c(F)c(F)c(F)c(F)c12`, the Potency was inconclusive [inhibitor, partial curve]. With `COC(=O)[C@@H]1CCCN1C(=O)CCc1nnc(CCC2CCCCC2)o1` the “activity, negative = inhibition” value was inactive: -0.0556%. For `COc1ccc(CCN2C(=O)c3[nH]nc(-c4ccccc4O)c3C2c2ccc(O)c(OC)c2)cc1` (centres undefined), the Potency was inconclusive [inhibitor, partial curve]. In the case of `O=C(NC1CCCCC1)c1cc(Nc2ccccc2)nc2ccccc12`, the Potency is reported as inconclusive [inhibitor, single point]. `COC(=O)c1ccc(NC(=O)CCNS(=O)(=O)c2cccc3nsnc23)cc1` was tested, and the “activity, negative = inhibition” value was inactive: -6.59%. `COC(=O)c1ccc2c(=O)n(-c3ccccc3)c(SCN3C(=O)c4ccccc4C3=O)nc2c1` was tested, and the Potency was inconclusive [inhibitor, single point]. With `CCC(c1nnnn1C(C)(C)CC)N(CCN1CCOCC1)Cc1cc2cc(C)ccc2[nH]c1=O` (centres undefined) the Potency was inconclusive [inhibitor, single point]. For `CC1=CC(C#N)(C#N)C(C#N)(C#N)C(c2ccccc2)N1` (centres undefined), the “activity, negative = inhibition” value was inactive: -7.83%. For `CC(C)CC(=O)Nc1ccc(S(=O)(=O)NCc2ccco2)cc1`, the “activity, negative = inhibition” value was inactive: -13.2%. For `O=C(Nc1ccccc1)N1CC=C(c2ccc(F)cc2)CC1`, the Potency was inconclusive [inhibitor, single point]. With `CN1CCN(C(=O)c2sc(=S)n(-c3ccccc3)c2N)CC1` the Potency was inconclusive [inhibitor, single point]. For `CCC12CN3CC(C)(CN(C1)C3c1c(C)n(C)c3ccccc13)C2=O` (centres undefined), the “activity, negative = inhibition” value was inactive: -1.73%. With `COc1ccc(-c2nc3ccccc3c(=O)n2CCOc2c(C)cccc2C)cc1` the Potency was inconclusive [inhibitor, partial curve]. `O=C(Cc1ccccc1Cl)NC1(O)C(=O)c2ccccc2C1=O` was tested, and the Potency was inconclusive [inhibitor, full curve]. For `Cc1ccc(-c2nc(N)sc2-c2ccccc2)cc1C`, the “activity, negative = inhibition” value was inactive: 3.12%. With `COc1cccc(N2CCN(c3ccc4nnc(CCC(=O)O)n4n3)CC2)c1` the “activity, negative = inhibition” value was inactive: -4.06%. `CC(=O)c1nnn(-c2ccccc2C#N)c1C` was tested, and the Potency was inconclusive [inhibitor, single point]. In the case of `CCn1c(=O)cc(OCC(=O)Nc2cc(OC)c(OC)c(OC)c2)c2ccccc21`, the Potency is reported as inconclusive [activator, single point]. In the case of `O=C(Nc1ccc(-c2nc3ccccc3o2)cc1)c1ccc(N2CCOCC2)c([N+](=O)[O-])c1`, the Potency is reported as inconclusive [inhibitor, partial curve]. With `Cn1c(CC(=O)Nc2ccc(Cl)c(Cl)c2)nnc1SCC(=O)Nc1nccs1` the Potency was inconclusive [inhibitor, single point]. `Cc1ccc(NC(=O)C(=O)NCCOc2ccc(Cl)cc2)c(C)c1` was tested, and the “activity, negative = inhibition” value was inactive: -5.53%. In the case of `CC(=O)N[C@H](C(=O)O)C(C)(C)SN=O`, the Potency is reported as inconclusive [inhibitor, single point]. With `Cc1ccc(-n2c(SCC(=O)c3c(N)n(C)c(=O)n(C)c3=O)nc3sc4c(c3c2=O)CCCC4)c(C)c1` the Potency was inconclusive [inhibitor, single point]. `CC(C)Oc1cc(NC(=O)CSCC(=O)Nc2cccc(C(F)(F)F)c2)c(Cl)cc1Cl` was tested, and the Potency was active: 35.5 µM. In the case of `Fc1cc(NC(=S)NCc2ccc(CNC(=S)Nc3ccc(Cl)c(F)c3)cc2)ccc1Cl`, the Potency is reported as active: 3.98 µM. With `CCn1c(CSc2nccn2C)nc2cc(C(=O)O)ccc21` the Potency was inconclusive [inhibitor, full curve]. In the case of `COCCNC(=O)CSc1nnc2c(Cl)cc(Cl)cn12`, the Potency is reported as active: 25.1 µM. For `COc1cc(CN2CCc3nc(Nc4ccc5c(c4)OCCO5)ncc3C2)cc(OC)c1OC`, the Potency was inconclusive [activator, single point]. With `CCC(=O)N1CCc2cc(S(=O)(=O)NC(C(=O)NCc3ccc(OC)cc3)C(C)C)ccc21` (centres undefined) the Potency was inconclusive [inhibitor, single point]. With `N#CC1=C(N)Oc2[nH]c(=S)[nH]c(=O)c2C12C(=O)Nc1ccccc12` (centres undefined) the Potency was inconclusive [inhibitor, partial curve, poor fit]. For `COc1ccc2oc(-c3ccccc3)c(C(=O)N3CCOCC3)c2c1`, the Potency was inconclusive [inhibitor, single point]. For `Cc1cccc(N2C(S)=C(C#N)C(=O)NC23CCCCC3)c1`, the Potency was inconclusive [inhibitor, single point]. `O=c1[nH]c(=S)[nH]c2[nH]c(=S)[nH]c12` was tested, and the Potency was inconclusive [inhibitor, partial curve]. For `Cc1cccc(N2C(=O)CC(SC(=Nc3ccccc3)Nc3ccccc3)C2=O)c1` (centres undefined), the Potency was inconclusive [inhibitor, single point]. With `CCCn1c(N)c(Br)c(=O)[nH]c1=O` the Potency was inconclusive [inhibitor, single point]. With `CCOC(=O)c1cc(-c2ccccc2)sc1N` the “activity, negative = inhibition” value was inactive: 12.2%. With `Cc1ccc(-c2nnc(Nc3ccc(C(N)=O)cc3)c3ccccc23)cc1S(=O)(=O)N1CCCCC1` the Potency was active: 28.2 µM. For `Cc1cc(C)c(NS(=O)(=O)c2ccc(NC(=O)c3cccs3)cc2)c(C)c1`, the Potency was inconclusive [inhibitor, partial curve]. `Nc1nn2c(-c3ccccc3)cc(=O)[nH]c2c1N=Nc1ccc(O)cc1` was tested, and the “activity, negative = inhibition” value was inactive: 2.62%. For `COc1cccc2[nH]c3c(N4CCc5ccccc5C4)ncnc3c12`, the Potency was inconclusive [activator, full curve, poor fit]. For `COc1cccc(NC(=S)Nc2cc(C)cc(C)n2)c1`, the Potency was inconclusive [inhibitor, single point]. With `Cc1cc(Br)ccc1SCC(=O)OCC(=O)c1c(N)n(C)c(=O)n(C)c1=O` the Potency was inconclusive [inhibitor, partial curve].
